Hit rate of the full screen: of about 420,000 compounds, about 50,000 (12%) were called active. The shares of active, inactive and inconclusive entries below differ from those in the screen. The call rests on the fitted dose curve; in most records, active means well fitted inhibition curve with a large enough effect; inconclusive means small, poorly fitted or top-dose-only effect; inactive means flat fitted curve, though single readings scatter. No potency is given beside an inconclusive call; the fits are too rough.
Test: qHTS for Inhibitors of human tyrosyl-DNA phosphodiesterase 1 (TDP1): qHTS in cells in presence of CPT; further: nearly all actives have a fitted effect of over 55% in size
Conditions: chicken DT40 Tdp1-/-;hTDP1 cells + 20 nM CPT, ATP luminescence, 48 h; activity change, negative = growth inhibition: at 46.2 µM (top of the series) unless noted
In short: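 Chicken DT40 Tdp1-/- cells complemented with human TDP1, 400 cells/well, exposed to compounds plus 20 nM camptothecin for at least 48 h at 37 C; viability read as ATP content by CellTiter-Glo luminescence.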
On the % scale 0 is the no-effect control and ±100 the full control effect; potency means the concentration at half of the fitted maximal effect; tags describe the fitted curve by direction and shape.

SMILES | activity change, negative = growth inhibition | Potency
C[C@H](CO)N1C[C@H](C)[C@@H](CN(C)C(=O)Nc2ccc3c(c2)OCO3)Oc2c(NC(=O)Cc3ccccc3)cccc2C1=O | inactive: -13.5% | –
CN(C)c1ccc(/C=N/OC(=O)Nc2ccccc2Cl)cc1 | – | active: 8.2 µM
Cc1ccc(NC(=O)CN2C(=O)NC3(CCCCC3C)C2=O)cc1S(=O)(=O)N1CCOCC1 (stereo not given) | inconclusive: -30.5% [inhibitor] | –
Cc1ccc(CN2CCSc3ccc(C(=O)Nc4cc(C)cc(C)c4)cc32)cc1 | – | inconclusive [inhibitor, single point]
CN1CCN(S(=O)(=O)c2ccc(NC(=O)c3csc4ccccc34)cc2)CC1 | – | inconclusive [inhibitor, single point]
Cc1ccccc1-c1nc2sc3c(c2c(=O)n1N)CCCC3 | – | inconclusive [inhibitor, single point]
CC(=O)N1CCc2c(sc3nc(SCC(N)=O)n(-c4ccc(F)c(Cl)c4)c(=O)c23)C1 | inactive: 5.42% | –
CN(CCCNC(=O)c1ccc(/C=N/O)nc1)CCCN(C)Cc1ccccc1 | – | inconclusive [inhibitor, single point]
Cc1ccc(CCNC(=O)CCCn2c(=O)c3ccccc3n(CC(=O)Nc3cc(Cl)ccc3C)c2=O)cc1 | – | inconclusive [inhibitor, single point]
Cc1ccc(N=Nc2ccc3ccccc3c2O)cc1 | – | inconclusive [inhibitor, single point]
Cc1oc(C(=O)O)cc1COc1cccc2cccnc12 | – | inconclusive [inhibitor, single point]
Fc1ccc(CNC(=S)NC2CCCCC2)cc1 | – | inconclusive [inhibitor, single point]
Cc1cc(F)ccc1C(O)c1ncc(-c2ccc(Cl)cc2)[nH]1 (stereo not given) | inactive: 0.545% | –
O=C(NC(=S)Nc1ccc(C(=O)N2CCOCC2)cc1)c1ccc([N+](=O)[O-])cc1 | inconclusive: -33.4% [inhibitor] | –
COc1ccc(CN(C(=O)c2snc(C(N)=O)c2N)C(C(=O)NC2CCCC2)c2ccc(OC)cc2)cc1 (stereo not given) | – | inconclusive [inhibitor, single point]
COc1ccc2sc(-c3ccc(S(C)(=O)=O)cc3)c(-c3ccc4c(c3)OCCO4)c2c1 | – | inconclusive [inhibitor, single point]
CC(C)CN(C(=O)c1ccc(=O)n(C)n1)c1nc2ccccc2s1 | – | inconclusive [inhibitor, single point]
Cn1c(-c2ccc(Cl)cc2)cnc1NCc1cc2c(cc1[N+](=O)[O-])OCO2 | – | inconclusive [inhibitor, single point]
COC(=O)c1ccc(N=Cc2c(C(F)(F)F)[nH][nH]c2=O)cc1 | inactive: 14.4% | –
CCCCN(C)S(=O)(=O)c1cc(Br)cc2c1N(C(=O)C1CC1)CC2 | – | active: 8.2 µM
O=C(c1ccc(Cn2c(=O)[nH]c3ccccc3c2=O)cc1)N1CCN(c2ccc(F)cc2)CC1 | – | inconclusive [inhibitor, single point]
Clc1cccc(Cc2c(C3CCCCC3)nc3c4ccccc4ccn23)c1 | – | inconclusive [inhibitor, single point]

SMILES | activity change, negative = growth inhibition | Potency
Cc1ccc(C(=O)OCC(=O)Nc2cc(C(C)(C)C)no2)c(C)c1 | – | inconclusive [inhibitor, single point]
COc1ccc(-c2cc(C(F)(F)F)nc(SCc3cccc(C(=O)O)c3)n2)cc1 | inactive: -17.5% | –
COc1ccc(CCNC(=O)Cn2c(=O)cc(C(F)(F)F)c3c(C)nn(C)c32)cc1OC | – | inconclusive [inhibitor, single point]
Cc1cccc(CCNC(=O)C2CCN(S(=O)(=O)c3cccc4nsnc34)CC2)c1 | – | inconclusive [inhibitor, single point]
O=C(COC(=O)c1ccc(Cl)nc1)Nc1cccnc1Cl | inactive: 10.1% | –
CCCCC1(CC(=O)OCC)C(=O)N(c2ccccc2)N(c2ccccc2)C1=O | inactive: 0.501% | –
Cc1cc(NC(=O)CCC(=O)N(CC2CCCO2)C(C(=O)NC2CCCC2)c2ccccc2C)no1 (stereo not given) | – | inconclusive [inhibitor, single point]
CCOc1ccc(OCCCC(=O)N(C)CC(=O)Nc2ccccc2Br)cc1 | – | inconclusive [inhibitor, single point]
Cc1ccc(NC(=O)c2cc(NC(=O)c3ccco3)ccc2N2CCCCC2)cc1 | – | inconclusive [inhibitor, partial curve]
COc1ccc(-c2noc(N(C)CC(=O)Nc3cccc(C(F)(F)F)c3)n2)cc1 | – | inconclusive [inhibitor, single point]
CCN(C(=O)C(C)OC(=O)CCCNC(=O)c1ccc(Cl)cc1)c1ccccc1 (stereo not given) | – | inconclusive [inhibitor, partial curve]
COc1ccc(NC(=O)CSc2nnc3ccc(-c4ccccn4)nn23)cc1OC | – | inconclusive [inhibitor, partial curve, poor fit]
CCOC(=O)c1sc2nc(C)n(CC(=O)Nc3cccc(Cl)c3)c(=O)c2c1C | – | inconclusive [inhibitor, partial curve]
Cc1cccc(C)c1OCC(=O)N/N=C/c1ccncc1 | – | inconclusive [inhibitor, single point]
Cc1ccc(C)c(CSC2=NC(C)(C)Nc3ccccc32)c1 | – | inconclusive [inhibitor, single point]
COC(=O)[C@@]12C[C@@H](CC(=O)N3CCN(C(=O)c4ccco4)CC3)C(=O)N(Cc3ccco3)C1=CCC(C)(C)C2 | – | inconclusive [inhibitor, single point]
Cc1cc2c(=O)n(Cc3ccco3)c(SCC(=O)N3CCCc4ccccc43)nc2s1 | – | inconclusive [inhibitor, single point]
CC(=O)Oc1cc(-c2coc3cc(OC(C)=O)c(OC(C)=O)c(OC(C)=O)c3c2=O)cc(OC(C)=O)c1OC(C)=O | – | inconclusive [inhibitor, single point]
CCc1cccc(NC(=O)c2cc3c(=O)[nH]c4ccccc4c3n2C)c1 | – | inconclusive [inhibitor, single point]
C#CCNC(=O)C[C@@H]1C[C@@]2(C(=O)OC)CCCCC=C2N(CCC2=CCCCC2)C1=O | – | inconclusive [inhibitor, single point]
CCOc1ccc(Br)cc1S(=O)(=O)Nc1nc(CN2CCOCC2)nc2sc(C)c(C)c12 | – | inconclusive [inhibitor, single point]
CC(C)(C)c1ccc(C(=O)N2CCC2(C)C(=O)NCC(F)(F)F)cc1 (stereo not given) | – | inconclusive [inhibitor, single point]

SMILES | activity change, negative = growth inhibition | Potency
CC1Cc2ccccc2N1S(=O)(=O)c1cccc(C(=O)NCc2ccccn2)c1 (stereo not given) | – | inconclusive [inhibitor, single point]
O=C(NCCO)OC1CC2CC1[C@H]1CCCCN1C2=O (stereo not given in full) | inactive: 3.68% | –
CN(C)c1ccc(/C=N\NC(=O)c2ccc(Cn3cc(Cl)cn3)cc2)cc1 | – | inconclusive [inhibitor, partial curve]
COc1ccc(CNC(=O)c2cnn3c(C(F)F)cc(C)nc23)cc1OC | – | inconclusive [inhibitor, partial curve]
Cc1ccc(S(=O)(=O)N2CCOCC2)cc1NC(=O)COC(=O)C1(C)CC1(Cl)Cl (stereo not given) | – | inconclusive [inhibitor, single point]
Cc1ccc2c(c1)C1C3CCC(C3)C1S(=O)N2 (stereo not given) | – | inconclusive [inhibitor, partial curve, poor fit]
COc1cc(/C=C(\C#N)C(=O)NCCc2ccccc2)cc(OC)c1O | inactive: -24.9% | –
Cc1ccc(Cl)cc1NC(=O)c1sc2nc(-c3ccccc3)cn2c1C | – | active: 20.6 µM
O=[N+]([O-])c1ccc(Br)c(CN2CCN(c3ncc(Cc4ccccc4)cn3)CC2)c1 | – | inconclusive [inhibitor, single point]
Cc1ccc(N(CC(=O)NC2CCCCC2)C(=O)c2ccc(C)s2)cc1 | inactive: -19.4% | –
COc1ccccc1NC(=O)C1=C(C)Nc2nc(SCc3ccccc3F)nn2C1c1cccnc1 (stereo not given) | – | active: 14.6 µM
O=C(COC(=O)c1ccccc1SCC(=O)N1CCCC1)Nc1ccccc1 | – | inconclusive [inhibitor, single point]
CN1CCN(C/C(=C2/N=C(c3ccccc3)OC2=O)N(C)C)CC1 | – | inconclusive [inhibitor, single point]
Cc1ccc(S(=O)(=O)N2CCN(c3nc(-n4ccnn4)nc4ccccc34)CC2)cc1 | – | active: 12.6 µM
CCOC(=O)c1ccc(NC(=O)c2nc[nH]c2C(=O)NCCCCCNC(=O)OC(C)(C)C)cc1 | – | inconclusive [inhibitor, single point]
COc1ccc(Oc2ncc3nc(-c4ccc(Cl)cc4)c(=O)n(C)c3n2)cc1 | inactive: 15.8% | –
Cc1ccc(C(=O)Nc2sc(Cc3ccc4c(c3)OCO4)c(C)c2C(N)=O)cc1 | – | inconclusive [inhibitor, single point]
CCOc1ccc(NC(=O)CN(C)C(=O)c2ccccc2-n2cnnn2)cc1OCC | inactive: -21.7% | –
C=CCc1c(C)nc2nc(SCC(=O)Nc3cccc(Cl)c3)nn2c1C | – | active: 20.6 µM
COC(=O)c1ccc(CNC(=O)COC(=O)/C=C/c2ccc(OC)c(OC)c2)cc1 | inactive: -9.63% | –
COC(=O)[C@@]12C[C@@H](CC(=O)N3CCC(c4ccccc4)CC3)C(=O)N(Cc3ccco3)C1=CCC(C)(C)C2 | – | inconclusive [inhibitor, single point]
